From publication PMC9911399, “Two distinct binding modes provide the RNA-binding protein RbFox with extraordinary sequence specificity” come the findings set out here.

Substitutions are numbered along the chain they refer to; changes in the protein carry UniProt numbers. This is one part of the list.

The labels stand for the following.
B1: CGCAGAG (DNA:RNA)
RNA: GGGAGACCGGAAUUCAGAUUGUCCCGCAGAGUUAAAUCCCGUCGUAGCCACCA
DNA 1: CAATCTGAATTCCGGTCTCCC
DNA 2: TGGTGGCTACGACGGGATT
B2: CACAGUA (DNA:RNA)
RNA: B1 RNA with G26A, A30U, G31A
DNA 1: CAATCTGAATTCCGGTCTCCC
DNA 2: TGGTGGCTACGACGGGATT
B3: CUGACCC (DNA:RNA)
RNA: B1 RNA with G26U, C27G, G29C, A30C, G31C
DNA 1: CAATCTGAATTCCGGTCTCCC
DNA 2: TGGTGGCTACGACGGGATT
B4: CCUGCCU (DNA:RNA)
RNA: B1 RNA with G26C, C27U, A28G, G29C, A30C, G31U
DNA 1: CAATCTGAATTCCGGTCTCCC
DNA 2: TGGTGGCTACGACGGGATT
B5: UUCCCCC (DNA:RNA)
RNA: B1 RNA with C25U, G26U, A28C, G29C, A30C, G31C
DNA 1: CAATCTGAATTCCGGTCTCCC
DNA 2: TGGTGGCTACGACGGGATT
B6: AGAAAUG (DNA:RNA)
RNA: B1 RNA with C25A, C27A, G29A, A30U
DNA 1: CAATCTGAATTCCGGTCTCCC
DNA 2: TGGTGGCTACGACGGGATT
B7: GCAAAAU (DNA:RNA)
RNA: B1 RNA with C25G, G26C, C27A, G29A, G31U
DNA 1: CAATCTGAATTCCGGTCTCCC
DNA 2: TGGTGGCTACGACGGGATT
B8: GGCACCC (DNA:RNA)
RNA: B1 RNA with C25G, G29C, A30C, G31C
DNA 1: CAATCTGAATTCCGGTCTCCC
DNA 2: TGGTGGCTACGACGGGATT
B9: UUGACUA (DNA:RNA)
RNA: B1 RNA with C25U, G26U, C27G, G29C, A30U, G31A
DNA 1: CAATCTGAATTCCGGTCTCCC
DNA 2: TGGTGGCTACGACGGGATT
B10: GAAGGUU (DNA:RNA)
RNA: B1 RNA with C25G, G26A, C27A, A28G, A30U, G31U
DNA 1: CAATCTGAATTCCGGTCTCCC
DNA 2: TGGTGGCTACGACGGGATT
B11: ACGUGGU (DNA:RNA)
RNA: B1 RNA with C25A, G26C, C27G, A28U, A30G, G31U
DNA 1: CAATCTGAATTCCGGTCTCCC
DNA 2: TGGTGGCTACGACGGGATT
B12: GCGAACG (DNA:RNA)
RNA: B1 RNA with C25G, G26C, C27G, G29A, A30C
DNA 1: CAATCTGAATTCCGGTCTCCC
DNA 2: TGGTGGCTACGACGGGATT
B13: CGGAUGA (DNA:RNA)
RNA: B1 RNA with C27G, G29U, A30G, G31A
DNA 1: CAATCTGAATTCCGGTCTCCC
DNA 2: TGGTGGCTACGACGGGATT
B14: UAUUGAA (DNA:RNA)
RNA: B1 RNA with C25U, G26A, C27U, A28U, G31A
DNA 1: CAATCTGAATTCCGGTCTCCC
DNA 2: TGGTGGCTACGACGGGATT
B15: AGCGAAG (DNA:RNA)
RNA: B1 RNA with C25A, A28G, G29A
DNA 1: CAATCTGAATTCCGGTCTCCC
DNA 2: TGGTGGCTACGACGGGATT
B16: CACAACA (DNA:RNA)
RNA: B1 RNA with G26A, G29A, A30C, G31A
DNA 1: CAATCTGAATTCCGGTCTCCC
DNA 2: TGGTGGCTACGACGGGATT
B17: UGAACGU (DNA:RNA)
RNA: B1 RNA with C25U, C27A, G29C, A30G, G31U
DNA 1: CAATCTGAATTCCGGTCTCCC
DNA 2: TGGTGGCTACGACGGGATT
B18: UGCACCA (DNA:RNA)
RNA: B1 RNA with C25U, G29C, A30C, G31A
DNA 1: CAATCTGAATTCCGGTCTCCC
DNA 2: TGGTGGCTACGACGGGATT
B19: CAUGAAU (DNA:RNA)
RNA: B1 RNA with G26A, C27U, A28G, G29A, G31U
DNA 1: CAATCTGAATTCCGGTCTCCC
DNA 2: TGGTGGCTACGACGGGATT
B20: UCCUUCU (DNA:RNA)
RNA: B1 RNA with C25U, G26C, A28U, G29U, A30C, G31U
DNA 1: CAATCTGAATTCCGGTCTCCC
DNA 2: TGGTGGCTACGACGGGATT

The target in this assay is T1, RBFOX1 RRM RbFoxmut (Fox-RRM*) (Homo sapiens, UniProt Q9NWB1 109-208, R118D;E147R;N151S;E152T).
T1 sequence: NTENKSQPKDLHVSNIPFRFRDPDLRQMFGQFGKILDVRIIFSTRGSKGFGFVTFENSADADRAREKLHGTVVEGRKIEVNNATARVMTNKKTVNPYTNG
Nature of the assay: EMSA; HiTS-Eq, 1 nM pool, 10 min; buffer printed only for the single-RNA assays: 10 mM Tris pH 7.5, 150 mM NaCl, 3.4 mM EDTA, 0.001% NP-40, 30 C. The settings on record: tags: His6 N-terminal (pET28a); label: 5' 32P. A digest of the protocol: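 Purified RbFox RRM (wild type or mutant) was equilibrated for 10 min in 50 µL with 1 nM of a 5′-radiolabelled pool of RNA with 7 randomized nucleotides, its flanks annealed to DNA oligonucleotides, across increasing protein concentrations. Free RNA was separated by 8% native PAGE, excised, reverse-transcribed, PCR-barcoded and sequenced on an Illumina HiSeq 2500. Relative association constants came from read-count changes of each variant against the control reaction, normalised to the cognate motif.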
On the technique in general: Mobility shift assays separate free from complexed probe on a gel.
For B1, the binding signal is 0.128 KA relative to UGCAUGU.
On to B2, for which the binding signal is 0.135 KA relative to UGCAUGU.
B3: the binding signal is 0.0622 KA relative to UGCAUGU.
In the case of B4, the binding signal is 0.0809 KA relative to UGCAUGU.
For the molecule B5, the binding signal was 0.0582 KA relative to UGCAUGU.
Regarding B6, the binding signal was 0.121 KA relative to UGCAUGU.
On to B7, for which the binding signal was 0.105 KA relative to UGCAUGU.
Turning to B8, the binding signal is 0.111 KA relative to UGCAUGU.
Turning to B9, the binding signal was 0.09 KA relative to UGCAUGU.
The result for B10 reads 0.0588 KA relative to UGCAUGU; that for B11, 0.136 KA relative to UGCAUGU; that for B12, 0.354 KA relative to UGCAUGU.
In the case of B13, the binding signal was 0.235 KA relative to UGCAUGU.
Turning to B14, the binding signal was 0.0865 KA relative to UGCAUGU.
The result for B15 reads 0.108 KA relative to UGCAUGU; that for B16, 0.103 KA relative to UGCAUGU; that for B17, 0.242 KA relative to UGCAUGU.
Consider B18, for which the binding signal was 0.158 KA relative to UGCAUGU.
Consider B19, for which the binding signal is 0.114 KA relative to UGCAUGU.
For B20, the binding signal was 0.0598 KA relative to UGCAUGU.
